58 compounds from publication PMC4336329 (PLoS ONE, 2015) can be followed below.

Among all 310,000 compounds or so, about 2,200 (0.71%) showed an effect of 50% or more. The effect is printed as a negative number. Some of the results follow.

The target in this test is human ether-à-go-go-related gene (hERG) potassium channel (human, UniProt Q12809). Kind of test: primary screen, population patch clamp on CHO cells stably expressing hERG.
Chain of human ether-à-go-go-related gene (hERG) potassium channel (Q12809 whole entry, looked up): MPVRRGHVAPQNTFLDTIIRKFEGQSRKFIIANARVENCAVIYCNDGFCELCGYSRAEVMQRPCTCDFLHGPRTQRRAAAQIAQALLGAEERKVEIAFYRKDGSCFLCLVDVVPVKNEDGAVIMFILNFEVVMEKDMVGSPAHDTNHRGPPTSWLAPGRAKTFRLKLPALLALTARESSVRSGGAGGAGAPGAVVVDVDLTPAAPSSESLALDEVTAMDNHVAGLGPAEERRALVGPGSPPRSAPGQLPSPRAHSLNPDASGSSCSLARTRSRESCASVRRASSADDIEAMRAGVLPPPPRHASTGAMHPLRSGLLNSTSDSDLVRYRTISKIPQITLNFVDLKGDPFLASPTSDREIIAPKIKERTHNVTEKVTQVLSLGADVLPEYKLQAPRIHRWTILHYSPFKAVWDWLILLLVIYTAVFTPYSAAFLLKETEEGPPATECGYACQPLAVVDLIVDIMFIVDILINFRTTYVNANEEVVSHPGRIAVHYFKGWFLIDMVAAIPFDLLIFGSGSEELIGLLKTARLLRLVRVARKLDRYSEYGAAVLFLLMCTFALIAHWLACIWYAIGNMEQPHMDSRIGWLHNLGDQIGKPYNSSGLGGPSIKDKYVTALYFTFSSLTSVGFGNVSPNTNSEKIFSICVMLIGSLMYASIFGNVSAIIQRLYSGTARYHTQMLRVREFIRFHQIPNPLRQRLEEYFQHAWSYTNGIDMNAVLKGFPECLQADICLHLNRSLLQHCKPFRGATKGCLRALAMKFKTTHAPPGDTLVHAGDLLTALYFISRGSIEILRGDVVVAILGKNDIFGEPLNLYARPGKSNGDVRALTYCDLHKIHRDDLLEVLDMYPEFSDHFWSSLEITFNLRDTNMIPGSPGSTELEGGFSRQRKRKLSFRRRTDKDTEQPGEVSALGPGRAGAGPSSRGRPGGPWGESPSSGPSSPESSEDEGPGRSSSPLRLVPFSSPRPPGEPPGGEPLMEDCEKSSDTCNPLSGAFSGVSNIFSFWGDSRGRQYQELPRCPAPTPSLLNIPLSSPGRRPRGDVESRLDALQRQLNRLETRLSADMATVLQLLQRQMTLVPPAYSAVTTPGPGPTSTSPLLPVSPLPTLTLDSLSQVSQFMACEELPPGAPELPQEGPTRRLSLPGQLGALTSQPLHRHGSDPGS
As for `C/C(=N/NC(=O)CN1CCN(Cc2ccccc2Cl)CC1)c1ccco1`, the “hERG current change (%, negative = inhibition) at 1uM” value is 3.89%.
`COC(=O)c1ccc(CNC(=O)CSC(C)C(=O)Nc2cc(C)on2)cc1` (stereo not shown): the “hERG current change (%, negative = inhibition) at 1uM” value stood at 11%.
As for `N/C(=N\OC(=O)c1ccco1)c1cccc(Br)c1`, the figure is -15%; as for `COC(=O)c1cccc2nc3c(C(C)O)cccc3nc12` (stereo not shown), 11.1%.
As for `CCOCCCNC(=O)c1cccc(NC(=O)C2=C(C)OCCS2)c1`, the figure is 14.9%.
As to `CCCC(=O)Nc1c2c(nc3ccccc13)N(c1ccccc1)CC2`, the “hERG current change (%, negative = inhibition) at 1uM” value is 6.34%.
Regarding `COc1ccc(/C=C(\C#N)C(=O)OCC(=O)NCc2ccco2)cc1`, the “hERG current change (%, negative = inhibition) at 1uM” value came out at 10.1%.
With `N#CCc1nc2ccccc2c(=O)[nH]1`, the “hERG current change (%, negative = inhibition) at 1uM” value is given as -3.9%.
For `O=c1[nH]c(=O)n(CCC2=CCCCC2)c(O)c1C=NCCN1CCNCC1` the value was -2.73%.
Consider `Cc1cc(C(=O)NN=C2CCCCCC2)c(C)o1`, for which the “hERG current change (%, negative = inhibition) at 1uM” value turned out to be 3.9%.
For `COC(C/C=C\[C@@H](O)[C@@H](C)OCc1ccccc1)OC` the value was 18%; for `CCc1cc2c(=O)n(CC(C)C)cnc2s1`, 0.774%.
Turning to `Cc1cccc(OCC(=O)Nc2cc(C)ccc2O)c1`, the “hERG current change (%, negative = inhibition) at 1uM” value is on record as 14.2%.
`C(=N\N(Cc1ccccc1)c1ccccc1)/c1ccco1`: the “hERG current change (%, negative = inhibition) at 1uM” value is given as 15.1%.
In the case of `CC(Oc1ccc2c3c(c(=O)oc2c1)CCCC3)C(=O)NCCCn1ccnc1` (stereo not shown), the “hERG current change (%, negative = inhibition) at 1uM” value worked out at 36.2%.
As to `CC1(C)CC(=O)N(CC(=O)NC2CCCC2)c2ccccc2S1(=O)=O`, the “hERG current change (%, negative = inhibition) at 1uM” value came out at 13.1%.
In the case of `CCOC(=O)/C(N)=C/c1ncc(C(F)(F)F)cc1Cl`, the “hERG current change (%, negative = inhibition) at 1uM” value is listed as 5.33%.
With `CSCC[C@H](NC(=O)[C@H](Cc1ccccc1)n1c(=O)[nH]c2ccccc2c1=O)C(=O)N1CCC(C(=O)O)CC1`, the “hERG current change (%, negative = inhibition) at 1uM” value was 11.5%.
For `COc1cc(OC)c(-c2c3cc(O)c(=O)cc-3oc3cc(O)c(O)cc23)cc1OC` the value was 12.3%; for `CCOc1cccc2cc(C(=O)Oc3ccc(OC)cc3)c(=O)oc12`, 14.7%; for `CC(=O)c1sc(NC(=O)CSC(C)C(=O)Nc2cc(C)on2)nc1-c1ccccc1` (stereo not shown), 3.74%.
For `COc1ccccc1N1CC=C(c2cccc([N+](=O)[O-])c2)NC1=O` the value was 8.94%; for `CC(=O)N1CCC2(CC1)C(C#N)=C(N)Oc1n[nH]c(C(F)(F)F)c12`, 8.24%; for `O=C(NCC1CCN(Cc2cccc(Cl)c2)CC1)C1CCCN(c2ncnc3c2nc2n3CCCCC2)C1` (stereo not shown), 6.76%.
As for `CCOc1cc(NC(=S)NCCCN2CCOCC2)c(OCC)cc1NC(=O)c1ccccc1`, the figure is 16.1%; as for `COc1ccccc1COCC(O)CNCCc1ccc(C(F)(F)F)cc1.O=C(O)C(=O)O` (stereo not shown), -1.37%.
`CCc1ccc(C(=O)N2CCN(S(=O)(=O)c3sc(C(=O)O)c(C)c3C(=O)O)CC2)cc1`: the “hERG current change (%, negative = inhibition) at 1uM” value is reported as 9.01%.
On to `C/C(=N\OC(=O)Nc1ccc(Cl)cc1)c1ncc(C(F)(F)F)cc1N1CCOCC1`, for which the “hERG current change (%, negative = inhibition) at 1uM” value is 2.65%.
As for `CCOC(=O)c1cccc(S(=O)(=O)N2CCCC2)c1`, the figure is 10.6%; as for `CSc1ccccc1OCc1cc(C(=O)NC(C)CCn2cccn2)no1` (stereo not shown), 14%; as for `CCOc1ccccc1NC(=S)N1CCN(c2cccc(C)c2C)CC1`, 8.82%.
As for `Cc1ccc(OCc2cc(C(=O)N3CCN(CC(=O)NC(C)C)CC3)no2)cn1`, the figure is 17.6%; as for `COC(=O)c1[nH]c2c(c1C)C(=O)CCC2`, 13.1%; as for `CCN(CC)c1ccc2ccc(=O)oc2c1`, 7.92%.
As for `Cc1ccc(NC(=O)CSc2nnc(-c3ccncc3)n2N)cc1C`, the figure is 12.4%; as for `O=C1NC2(CCCCO2)CO1` (stereo not shown), 16%; as for `CCN(CC)CCN(C)C(=O)CCc1nnc(-c2ccc(C)s2)o1`, 9.6%.
Take `Cn1c(=O)c2c(ncn2CC(COCc2ccccc2Cl)OCc2ccccc2Cl)n(C)c1=O` (stereo not shown): the “hERG current change (%, negative = inhibition) at 1uM” value is listed as -1.33%.
For `O=C(Cc1ccccc1)NNC(=S)NC(=O)c1cccnc1`, the “hERG current change (%, negative = inhibition) at 1uM” value is reported as 13.4%.
For `COc1ccc(/C(O)=C2/C(=O)C(=O)N(c3ncccn3)C2c2ccc(C(C)(C)C)cc2)cc1` (stereo not shown), the “hERG current change (%, negative = inhibition) at 1uM” value came to 7.02%.
Turning to `COc1ccc(OC)c(N=CC2=C(O)CC(C)(C)CC2=O)c1`, the “hERG current change (%, negative = inhibition) at 1uM” value came out at 11.2%.
For `CNC(=S)N=Nc1c(O)[nH]c2ccc(C(C)C)cc12` the value was 15.5%; for `Cc1ccc(NC(=O)CCC(=O)NNC(=O)CCc2ccccc2)c(C)c1`, 15.8%; for `COC(=O)[C@H](CC(C)C)NC(=O)NC1CCCc2ccccc21` (stereo partly shown), 22.1%.
As for `COc1ccc(CNC(=O)C(C)Sc2nc3ccccc3c(=O)n2CC2CCCO2)cc1` (stereo not shown), the “hERG current change (%, negative = inhibition) at 1uM” value is on record as -17.5%.
As for `COc1ccc(C)cc1NC(=O)CSc1nnc(COc2ccc(C)cc2)n1Cc1ccco1`, the “hERG current change (%, negative = inhibition) at 1uM” value was -3.47%.
Regarding `Cc1cccc(C)c1NC(=O)C1=C(O)c2sccc2N(C)S1(=O)=O`, the “hERG current change (%, negative = inhibition) at 1uM” value came to 7.94%.
As for `O=S(=O)(c1ccc2c(c1)CCCN2)N1CCCC2CCCCC21` (stereo not shown), the “hERG current change (%, negative = inhibition) at 1uM” value is -2.88%.
Regarding `CC(C)C(OC(=O)Cn1nnc2ccccc21)C(=O)NC1CCCC1` (stereo not shown), the “hERG current change (%, negative = inhibition) at 1uM” value came to 6.29%.
`Cc1ccc2cc3c(nc2c1)OCC3`: the “hERG current change (%, negative = inhibition) at 1uM” value is recorded as 8.8%.
Regarding `O=C(CSc1nc2[nH]c(=O)cc(O)c2s1)Nc1ccc(Cl)c(C(F)(F)F)c1`, the “hERG current change (%, negative = inhibition) at 1uM” value is listed as -2.4%.
As to `CC(C)(C)c1ccc(C(=O)NC(=S)N2CCCC2)cc1`, the “hERG current change (%, negative = inhibition) at 1uM” value was 16.4%.
`Cc1ccc(C(=O)O)cc1NC(=S)NC(=O)c1ccc(-c2ccc(Cl)cc2)o1`: the “hERG current change (%, negative = inhibition) at 1uM” value worked out at 7.61%.
As for `Cc1ccc(SCCC(=O)Nc2ccccc2C(=O)N2CCOCC2)cc1`, the figure is 0.852%; as for `Oc1cccc(C(=S)N2CCCCC2)c1`, 7.6%.
Take `COc1ccc(C(=O)NC2CCCc3ccccc32)cc1Br` (stereo not shown): the “hERG current change (%, negative = inhibition) at 1uM” value is 17%.
For `Cc1ccc(Nc2nc(N)nc(CSC(=S)N3CCOCC3)n2)cc1` the value was -0.757%.
Regarding `Cc1cccc(NC(=O)COC(=O)Cc2cccs2)c1C`, the “hERG current change (%, negative = inhibition) at 1uM” value stood at 16.9%.
